Laboratory results reported in PubChem BioAssay AID1468 (National Center for Advancing Translational Sciences (NCATS), 2008).
About 1,100 (0.39%) of roughly 280,000 compounds were called active. The shares of active, inactive and inconclusive entries below differ from those in the screen. Calls follow the shape of the dose curve; as a rule, active = well fitted inhibition curve with a large enough effect; inconclusive = small, poorly fitted or top-dose-only effect, or effect the other way; inactive = flat fitted curve, though single readings scatter. Potencies of inconclusive entries are left out as doubtful fits.

Each molecule was assayed against Microtubule-associated protein tau (Homo sapiens) (UniProt P10636) (assay: qHTS for Inhibitors of Tau Fibril Formation, Fluorescence Polarization). Conditions: K18 P301L tau heparin fibrillization, Alexa594 FP, 6 h; series mostly up to 57.7 µM; activity, negative = inhibition: at the top concentration.
Chain of UniProt P10636 (P10636 whole entry, looked up): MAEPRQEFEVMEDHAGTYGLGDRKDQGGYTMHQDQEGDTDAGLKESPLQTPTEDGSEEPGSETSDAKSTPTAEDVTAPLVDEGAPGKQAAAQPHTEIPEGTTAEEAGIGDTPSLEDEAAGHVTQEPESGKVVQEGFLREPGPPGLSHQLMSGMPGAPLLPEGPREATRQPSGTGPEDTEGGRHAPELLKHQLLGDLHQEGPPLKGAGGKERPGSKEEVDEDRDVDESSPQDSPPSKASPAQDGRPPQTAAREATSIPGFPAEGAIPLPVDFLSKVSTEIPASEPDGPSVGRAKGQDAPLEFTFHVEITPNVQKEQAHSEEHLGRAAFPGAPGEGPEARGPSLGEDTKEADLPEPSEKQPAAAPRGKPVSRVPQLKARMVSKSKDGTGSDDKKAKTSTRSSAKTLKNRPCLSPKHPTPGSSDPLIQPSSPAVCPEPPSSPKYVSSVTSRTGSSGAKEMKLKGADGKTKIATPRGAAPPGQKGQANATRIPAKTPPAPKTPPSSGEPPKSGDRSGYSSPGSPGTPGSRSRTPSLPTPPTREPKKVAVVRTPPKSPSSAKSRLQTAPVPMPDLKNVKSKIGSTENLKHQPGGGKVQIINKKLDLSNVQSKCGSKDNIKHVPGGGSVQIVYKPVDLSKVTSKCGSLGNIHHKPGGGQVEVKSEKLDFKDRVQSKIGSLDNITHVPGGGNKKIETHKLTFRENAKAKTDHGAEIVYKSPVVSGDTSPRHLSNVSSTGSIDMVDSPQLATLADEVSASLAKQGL
Method in brief: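 K18 P301L tau (15 uM unlabeled/0.24 uM Alexa 594-labeled, final) + compound + heparin 20 uM final; 100 mM NaOAc pH 7; 6 hr 37 C; ThT 30 uM final added, 1 hr RT; FP ex 555/em 632 nm.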
% is scaled to controls: 0 for no effect and ±100 for the full control effect; potency is read from the fitted curve at half-maximal effect; tags tell the direction and shape of the fitted curve.
Also: nearly all actives have a fitted effect of over 55% in size.

Row | Compound | Potency | activity, negative = inhibition
1 | C=C(C)c1cccc(C(C)(C)NC(=O)Nc2ccc3[nH]c(=O)[nH]c3c2)c1 | inconclusive [activator, partial curve, poor fit] | 
2 | COc1ccc2nc3sc(C(=O)Nc4cc(Cl)c(OC)cc4OC)cc3cc2c1 | inconclusive [inhibitor, partial curve] | 
3 | NC(N)=Nc1nc2ccc([N+](=O)[O-])cc2[nH]1 |  | inactive: 5.96%
4 | O=C(NCCC1=CCCCC1)c1ccc2c(c1)N(Cc1ccc(F)cc1)C(=O)c1ccccc1S2(=O)=O | inconclusive [inhibitor, partial curve, poor fit] | 
5 | S=C(Nc1ccc(N2CCOCC2)cc1)Nc1ccc2nc(-c3ccco3)c(-c3ccco3)nc2c1 | inconclusive [inhibitor, partial curve] | 
6 | Cc1ccc(C(=O)Nc2ccccc2C(=O)NC(Cc2c[nH]c3ccccc23)C(=O)O)cc1 (stereo not drawn) | inconclusive [activator, single point] | 
7 | Cc1ccc2nc(-c3ccncc3)c(Nc3ccccc3C)n2c1 |  | inactive: 9.23%
8 | CC1=C(c2ccc(C)cc2)S(=O)(=O)N=C1N1CCN(c2ccccc2)CC1 |  | inactive: 0.873%
9 | COc1ccc(C(=O)c2ccc(OC)cc2OC)cc1 |  | inactive: -6.18%
10 | C=CCn1c(O)c(N=NC(=S)Nc2ccccc2F)c2ccccc21 |  | inactive: 6.38%
11 | Cc1cn(C)c(CC(=O)NCc2ccc(F)cc2)c1C(=O)O |  | inactive: 3.25%
12 | Cc1cc(C)cc(NC(=O)CN2C(=O)COc3ccc(S(=O)(=O)Nc4ccccc4)cc32)c1 | inconclusive [inhibitor, single point] | 
13 | CC(OC(=O)c1nn(C)c(=O)c2ccccc12)C(=O)NCc1ccc2c(c1)OCO2 (stereo not drawn) |  | inactive: -8.7%
14 | O=C(COc1ccccc1)N(Cc1cccnc1)c1nc2ccc(Cl)cc2s1 |  | inactive: -13.9%
15 | Cc1cc2nc3c(=O)[nH]c(=O)[nH]c3nc2c([N+](=O)[O-])c1N | inconclusive [inhibitor, partial curve] | 
16 | Cc1ccc(NS(=O)(=O)c2ccc3c4c(cccc24)C(=O)N3)c(C)c1 | inconclusive [inhibitor, single point] | 
17 | COc1cccc(C2CC(c3ccccc3)=NN2S(=O)(=O)c2ccccc2)c1OC (stereo not drawn) | inconclusive [inhibitor, single point] | 
18 | COC(=O)CCCC1=CC2=CC(=O)C(C)(OC(=O)c3ccco3)C(=O)C2=CO1 (stereo not drawn) | inconclusive [inhibitor, partial curve] | 
19 | CC1=CC(C)(C)N2C(=O)C(=Nc3ccc(O)cc3)c3cccc1c32 | active: 28.2 µM | 
20 | Cc1nnsc1C(=O)N/N=C/c1ccccc1 |  | inactive: -0.368%
21 | C=CCn1c(SCC(=O)O)nnc1-c1cccs1 |  | inactive: -0.87%
22 | COc1ccc2c(c1)Cc1sc(NC(C)=O)nc1-2 | inconclusive [inhibitor, single point] | 
23 | O=C(NC1CCCC1)C(c1cccnc1)N(C(=O)c1csnn1)C1CCCC1 (stereo not drawn) |  | inactive: 4.44%
24 | O=C(N/N=C1/C[C@@H](O)[C@@H](O)[C@@H]2[C@@H]3C(=O)N(C[C@@H]4CCCO4)C(=O)[C@H]3CC[C@H]12)OCc1ccccc1 | inconclusive [inhibitor, single point] | 
25 | COc1ccc(-c2cc(-c3ccccc3)nc3c2COc2ccc(F)cc2-3)cc1 | inconclusive [inhibitor, full curve] | 

Row | Compound | Potency | activity, negative = inhibition
26 | COc1cccc(C2C3=C(Nc4[nH]n(-c5ccccc5)c(=O)c42)c2ccccc2C3=O)c1 (stereo not drawn) |  | inactive: -0.278%
27 | COc1ccc(C2=C(N)c3ccccc3C2=O)cc1 |  | inactive: 11.2%
28 | O=C(CC1NCCc2ccccc21)Nc1ccccc1 (stereo not drawn) |  | inactive: 6.68%
29 | COC(=O)c1cc(=O)n(CCc2ccc(OC)cc2)c(=Nc2ccc(F)c(Cl)c2)s1 |  | inactive: -0.127%
30 | COCCN1CCN(Cc2nc(Cc3ccc(OC)c(OC)c3)no2)CC1 | inconclusive [inhibitor, single point] | 
31 | CCCCn1c(=S)[nH]c2ccc(N3CCOCC3)cc2c1=O | inconclusive [activator, single point] | 
32 | O=C(NCc1nc(-c2ccc(C(F)(F)F)cc2)no1)Nc1ccc(OC(F)(F)F)cc1 | active: 7.94 µM | 
33 | Cn1c(C(=O)NCCc2c[nH]c3ccccc23)cc2sccc21 | inconclusive [activator, partial curve] | 
34 | CC1=C(C(=O)OCc2ccccc2)C(c2ccsc2)C(C#N)=C(N)O1 (stereo not drawn) | inconclusive [inhibitor, full curve] | 
35 | Cc1ccccc1NC(=O)/C(=C/c1ccco1)c1ccccc1 |  | inactive: -10.5%
36 | CCOc1cccc(C2C(C(=O)c3ccc(C)o3)=C(O)C(=O)N2Cc2ccncc2)c1 (stereo not drawn) | inconclusive [inhibitor, single point] | 
37 | O=C(NC1CCCCC1)C(c1ccc(F)cc1)N(CCc1ccccc1)C(=O)CN1C(=O)c2ccccc2S1(=O)=O (stereo not drawn) | inconclusive [inhibitor, partial curve] | 
38 | CCOC(=O)c1cc2occc2n1Cc1ccc(F)cc1 | inconclusive [inhibitor, single point] | 
39 | O=C(COc1ccc(Cl)cc1Cl)OCC(=O)N1CCCc2ccccc21 |  | inactive: 13.2%
40 | O=c1cc(O)c2sc(Nc3ccc(Cl)c(F)c3)nc2[nH]1 | active: 12.6 µM | 
41 | COc1ccc(/C=N/NC(=O)c2nc(-c3ccccc3)cc(-c3ccccc3)n2)cc1O | inconclusive [activator, partial curve, poor fit] | 
42 | O=C(Nc1ccc2c(c1)N(C1CCCC1)C(=O)c1ccccc1S2)c1ccccc1F | inconclusive [inhibitor, single point] | 
43 | CCOC(=O)C1CCN(C(=O)CSc2nnc(-c3ccco3)n2-c2ccccc2)CC1 |  | inactive: -3.78%
44 | Cc1ccccc1NC(=O)CCS(=O)(=O)c1cc(Br)cc2c1N(C(=O)C1CC1)CC2 | inconclusive [inhibitor, full curve, poor fit] | 
45 | CCC(=O)N(C)/C=C1\Sc2ccccc2C1=O |  | inactive: 17.3%
46 | COC(=O)C1=NN(C(=O)c2cccc(Cl)c2)C(O)(C(C)(C)C)C1 (stereo not drawn) | inconclusive [activator, single point] | 
47 | CCN(CCS(=O)(=O)c1ccc(Cl)cc1)C(=O)Nc1ccccc1 |  | inactive: 2.68%
48 | O=C(COC(=O)c1cc2ccccc2oc1=O)c1cccc([N+](=O)[O-])c1 | inconclusive [activator, single point] | 
49 | O=c1[nH]c2cc3c(cc2cc1CN(Cc1cccnc1)C(=S)NCc1ccco1)OCO3 | inconclusive [inhibitor, full curve, poor fit] | 
50 | CC(NC(=O)CCCCCCN1C(=O)c2ccccc2C1=O)c1ccc2c(c1)CCCC2 (stereo not drawn) | inconclusive [inhibitor, single point] | 

Row | Compound | Potency | activity, negative = inhibition
51 | OC(CCN1CCCCC1)(c1ccccc1)C1CCCCC1 (stereo not drawn) | inconclusive [inhibitor, full curve, poor fit] | 
52 | O=C(CN1CCCc2ccccc21)NCCc1ccc(Cl)cc1 | inconclusive [activator, single point] | 
53 | O=S(=O)(Nc1ccc2c(c1)oc1ccccc12)N1CCCC1 | inconclusive [inhibitor, partial curve] | 
54 | COC(=O)N/N=C/c1cc(Cl)c(OCc2ccccc2F)c(OC)c1 | inconclusive [inhibitor, single point] | 
55 | Cc1ccc(NS(=O)(=O)c2ccc(-n3cccn3)cc2)cc1Cl | inconclusive [inhibitor, single point] | 
56 | CCOC(=O)N1CCc2c(sc3c2c(=O)n(-c2ccccc2C(F)(F)F)c(=O)n3Cc2ccccc2C)C1 |  | inactive: -3.03%
57 | O=C(C(Sc1ccccc1)c1ccccc1)N1CCN(c2ccccc2F)CC1 (stereo not drawn) |  | inactive: -11.8%
58 | Cn1nnc(NC(=S)NC(=O)c2cc3ccccc3o2)n1 |  | inactive: -0.794%
59 | Fc1ccc2nc(Nc3nc4cc5c(cc4s3)OCO5)sc2c1 | inconclusive [inhibitor, single point] | 
60 | Cc1ccccc1N/N=C1\CCCNC1=O | inconclusive [inhibitor, single point] | 
61 | COC(=O)c1cc2oc3ccccc3c2n1CC(=O)Nc1ccc(Cl)cc1F |  | inactive: -3.41%
62 | CCCCOc1ccc(C2=NC(c3ccncc3)=Nc3ccc(OCC)cc3N2)cc1 |  | inactive: 17.9%
63 | CCOc1ccccc1CNC(=O)C1CCN(c2nnc(-n3c(C)ccc3C)s2)CC1 | inconclusive [inhibitor, partial curve, poor fit] | 
64 | CCc1ccc(NC(=O)CN2C(=O)C(c3ccc(C)cc3)=NC23CCCCC3)cc1 |  | inactive: -15.2%
65 | Cc1ccc(SCC(=O)NC(=O)Nc2ccc3c(c2)OCCO3)cc1C | inconclusive [inhibitor, full curve] | 
66 | CN(C)c1ccc(NC(=S)NC(=O)/C=C/c2ccco2)cc1 |  | inactive: -12.8%
67 | CCN(CC)S(=O)(=O)c1cc(C(=O)Nc2ccccc2[N+](=O)[O-])ccc1Cl | inconclusive [activator, full curve] | 
68 | COc1ccc(NC(=O)CSc2nc3nc(C)c(Cc4ccccc4)c(C)n3n2)cc1OC |  | inactive: 7%
69 | Cc1ccc(N=Cc2ccc[nH]2)c(O)c1 | inconclusive [inhibitor, single point] | 
70 | CCOc1ccc(NC(=O)c2c[nH]n3c(=O)cc(C4CCN(C(=O)OC(C)(C)C)CC4)nc23)cc1 |  | inactive: 10.5%
71 | CCOC(=O)c1ccc(NC(=S)NC2CCCC2)cc1 | inconclusive [inhibitor, single point] | 
72 | Cc1nc2sccn2c(=O)c1S(=O)(=O)Nc1cc(Cl)ccc1O |  | inactive: -4.7%
73 | N#Cc1c(N)nc2c(c1-c1ccc(F)cc1)c(=O)nc1sccn12 | inconclusive [inhibitor, single point] | 
